The values below come from PubChem BioAssay (NCATS).

Values joined by “and” are separate entries in the source; they are usually repeats but may differ in a detail not shown here. Equal values may be shown once. Some of the results follow. These are further read-outs of the screen, such as a control signal, another cell line or another target. No call is given for them. Compounds called inactive in the main read-out are mostly missing here. For part of these data: Potencies come from curve fits of mixed quality, noted in brackets.

Experiment [1] is described as follows: qHTS Assay for Lipid Storage Modulators (AID 1519). As to conditions: Drosophila S3 cells, BODIPY lipid droplet/cell ratio, laser cytometry, cells loaded with oleic acid. Summed up:
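Cells seeded at 5,000 per well were treated with compounds over a concentration series and loaded with oleic acid (400 uM, as added). Lipid droplet fluorescence (488 nm excitation, 500-530 nm channel) was read by laser-scanning cytometry and normalized to 20 uM Triacsin C.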

A short description of experiment [2]: qHTS Assay for Modulators of Human Peripheral Myelin Protein 22 (PMP22) Expression/Activity (AID 1967). To be noted: Cell-based PMP22 reporter, dual-color luciferase ratio. Summed up:
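MSC80 mouse Schwann cells stably carrying Pmp22 promoter–green click beetle luciferase plus EF-alpha–red luciferase control were dosed for 24h at 37 °C. Dual-colour luminescence was filter-overlap corrected; %Activity came from green/red ratio versus untreated cells.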

Experiment [3] can be described thus: qHTS Assay for Inhibitors of PDE-IV (AID 607).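 Also: parental cells stimulated with forskolin 10 µM plus RO 20-1724 100 µM.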 To be noted: HEK293 ACTOne CNG channel cells, membrane potential fluorescence; measured here: parental cell counter-screen. Summed up: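 The readout is membrane depolarisation from a cAMP-sensing CNG channel, detected with a potential dye at ex 535/em 590. Cells were HEK293-derived (endogenous PDE-IV) at 1000 cells/well, titrated up to 22.9 uM final.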

Experiment [4] can be described thus: Nrf2 qHTS screen for inhibitors: Validation (AID 493153). To be noted: A549 ARE-Fluc reporter, 18-24 h; AC50: CellTiter-Fluor fluorescence read, measured here: cytotoxicity CellTiter-Fluor AC50; viability change: measured here: cytotoxicity max response. A digest of the protocol: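 A549 ARE_Fluc, 5% FBS OPTI-MEM; cpd titration, 18-24 h, 37°C/5% CO2. Read 1: CellTiter-Fluor (Ex 405/Em 525), cytotox. Read 2: luciferase lum, Nrf2 activity.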

The nature of experiment [5]: qHTS Validation Assay to Find Inhibitors of Chronic Active B-Cell Receptor Signaling (AID 485345). To be noted: ABC-DLBCL cells, chronic BCR signaling reporter. Summed up: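 TMD8 ABC-DLBCL cells with dox-inducible green luciferase–IκBα fusion and red native luciferase; compounds 46 uM–3 nM, 4 h at 37C with doxycycline in 0.5% FBS IMDM. Green/red ratio normalized to basal and 10 uM MG-132.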

The nature of experiment [6]: qHTS assay for small molecule antagonists of androgen receptor signaling (AID 588516). To be noted: AR-UAS-bla HEK293, beta-lactamase ratio, antagonist mode, 16 h; measured here: W460 blue channel fit. A digest of the protocol: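 Antagonist-mode qHTS: inhibition of R1881 (10 nM)-driven beta-lactamase expression in GripTite HEK 293 cells is measured after 16 h; values are Hill-derived IC50s normalized between R1881 and DMSO wells.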

Experiment [7] in a line: qHTS assay for small molecule antagonists of peroxisome proliferator-activated receptor delta signaling (AID 588535).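 Also: cells co-treated with a PPAR-delta agonist as stimulator during compound exposure.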 As to conditions: HEK293T PPARd-UAS-bla, beta-lactamase FRET ratio, 18 h; 460 nm channel. A digest of the protocol: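 Inhibition of PPAR-delta response element-driven beta-lactamase expression is measured in HEK293T cells exposed to a compound titration series for 18 hrs at 37 C. Half-maximal inhibition comes from Hill equation fitting.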

Experiment [8] can be described thus: qHTS assay for small molecule antagonists of peroxisome proliferator-activated receptor gamma signaling (AID 588537). As to conditions: HEK293 PPARg-UAS-bla, beta-lactamase ratio, antagonist mode; measured here: W460 blue channel. A digest of the protocol:
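Compounds are tested as concentration series for inhibition of rosiglitazone-driven (50 nM) reporter expression in GeneBLAzer PPAR-gamma-UAS-bla HEK293 cells. After 16 h at 37 C, CCF4 substrate is added for 2 h at room temperature and blue/green fluorescence is measured.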

Experiment [9] is described as follows: qHTS assay for small molecule agonists of retinoid X receptor alpha signaling (AID 588544). To be noted: HEK293T RXRa-UAS-bla, beta-lactamase reporter, 18 h; 530 nm emission.
A short description of experiment [10]: qHTS assay for small molecule antagonists of retinoid X receptor alpha signaling (AID 588546).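 Also: cells stimulated with 9-cis-retinoic acid as agonist; % is scaled to controls: 0 for no effect and ±100 for the full control effect.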 To be noted: HEK293T RXRa-UAS-bla, beta-lactamase ratio, antagonist mode; measured here: W530 green channel, cytotoxicity proxy. A digest of the protocol:
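Beta-lactamase reporter inhibition, read as CCF4 fluorescence ratio (ex 405, em 460/530 nm) after 2 h at RT. HEK293T UAS-bla cells, 2500/well, were stimulated with 9-cis-RA at 500 or 100 nM final alongside test compound for 18 h at 37 C.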

[11] abbreviates: measured here: cell count channel max response.
Setting [12] is: measured here: cell number channel AC50.
Setting [13] is: measured here: lipid (BODIPY) channel AC50.
Setting [14] is: measured here: lipid channel max response.
Where [15] appears, read: measured here: red reporter channel AC50, EF-alpha promoter control reporter in MSC80 mouse Schwann cells.
The mark [16] stands for this setting: measured here: green reporter channel AC50, mouse Pmp22 promoter in mouse Schwann cells.
Setting [17] is: measured here: CBR control luciferase (viability counter).
Tags tell the direction and shape of the fitted curve.

Take `CCCOc1ccccc1-c1nc2n[nH]nc2c(=O)[nH]1`: the max response in [1] (setting [11]) came to 91.1%; in experiment [1] (setting [14]), 115%. The half-maximal activity concentration (AC50) was 28.2 µM [rising, partial curve, poor fit] in experiment [1] (setting [12]); 28.2 µM [rising, partial curve, poor fit] in experiment [1] (setting [13]); 53.6 µM [falling, partial curve] in [2] (setting [15]).
On to `Cn1cc(C(=O)OCC2CCN(CCNS(C)(=O)=O)CC2)c2ccccc21`, for which the max response in experiment [1] (setting [11]) is 61.2% and 58.9%; in experiment [1] (setting [14]), 63.3% and 62.7%. The AC50 is 28.2 µM [rising, partial curve, poor fit] and 35.5 µM [rising, partial curve] in [1] (setting [12]); 31.6 µM [rising, partial curve, poor fit] and 35.5 µM [rising, partial curve] in experiment [1] (setting [13]); 67.5 µM [falling, partial curve] in [2] (setting [16]); 84.9 µM [falling, single point] in [2] (setting [15]).
In the case of `CCn1nc(C(=O)O)c(=O)c2cc3c(cc21)OCO3`, the max response in [1] (setting [11]) is 40.2% and 35.2%; in [1] (setting [14]), 40.5% and 48.7%. Further, the AC50 was 5.01 µM [rising, full curve, poor fit] in experiment [1] (setting [12]); 5.01 µM [rising, full curve, poor fit] in experiment [1] (setting [13]); 84.9 µM [falling, single point] in experiment [2] (setting [15]).
As to `OC[C@H]1O[C@@H](n2cnc3c(N[C@H]4CC5CCC4C5)ncnc32)[C@H](O)[C@@H]1O` (stereo not given in full), the figures for the max response in experiment [1] (setting [11]) and in [1] (setting [14]) were 59.3% and 61.2%, respectively. Further, the concentration at half-maximal activity (AC50) in experiment [1] (setting [12]) was 1 µM [falling, full curve, poor fit]; in experiment [1] (setting [13]) it was 1 µM [falling, full curve, poor fit]; in [2] (setting [16]), 84.9 µM [falling, single point]; in [2] (setting [15]), 60.1 µM [falling, partial curve, poor fit].
`Cc1cccc(C2CN(C)CCc3c2cc(O)c(O)c3Cl)c1` (stereo not given): the values for the max response in experiment [1] (setting [11]) and in experiment [1] (setting [14]) were -28.9% and -31.1%, respectively. In addition, the AC50 in [1] (setting [12]) was 2.82 µM [falling, full curve, poor fit]; in experiment [1] (setting [13]), 2.82 µM [falling, full curve, poor fit]; in experiment [2] (setting [16]), 21.3 µM [rising, full curve]; in experiment [2] (setting [15]), 42.6 µM [falling, partial curve, poor fit].
As to `COc1ccc2c(c1)c(CC(=O)N1CCOCC1)c(C)n2C(=O)c1ccc(Cl)cc1`, the max response in [1] (setting [11]) was 91.1% and -64.9%; in experiment [1] (setting [14]), 117% and -66.4%. Besides, the AC50 is 3.98 µM [rising, full curve] and 11.2 µM [falling, partial curve, poor fit] in experiment [1] (setting [12]); 3.98 µM [rising, full curve] and 11.2 µM [falling, partial curve, poor fit] in experiment [1] (setting [13]); 75.7 µM [falling, partial curve] in experiment [2] (setting [15]).
For the molecule `CCCCCCN(CCCCCC)C(=O)Cc1c(-c2ccc(F)cc2)[nH]c2ccccc12`, the concentration at half-maximal activity (AC50) was 12.6 µM [rising, partial curve, poor fit] and 3.16 µM [rising, full curve] in [3]; 3.55 µM [rising, full curve] in experiment [1] (setting [12]); 2.51 µM [rising, full curve] in experiment [1] (setting [13]); 33.8 µM [falling, full curve] in experiment [2] (setting [16]); 26.9 µM [falling, full curve] in [2] (setting [15]). Moreover, the max response in experiment [1] (setting [11]) is 83.2% and 57.1%; in experiment [1] (setting [14]), 90.2% and 54.5%. For the same molecule, the viability change in experiment [4] is -6.96%.
`CC(=O)O[C@]1(C(C)=O)CC[C@H]2C3C=C(Cl)C4=CC(=O)[C@@H]5C[C@H]5[C@]4(C)C3CC[C@@]21C` (stereo not given in full): the max response in experiment [1] (setting [11]) came out at 48.7%; in [1] (setting [14]), 47.2%. For the same molecule, the AC50 in experiment [1] (setting [12]) was 39.8 µM [rising, single point]; in experiment [1] (setting [13]), 39.8 µM [rising, single point]; in experiment [2] (setting [16]), 84.9 µM [falling, single point]; in experiment [2] (setting [15]), 84.9 µM [falling, single point].
With `CN(C)CCCc1cc(C(=O)Nc2ccc(-c3ccncc3)cc2)ccc1O`, the max response in experiment [1] (setting [11]) is 71.1%; in experiment [1] (setting [14]), 98.1%. For the same molecule, the AC50 in experiment [1] (setting [12]) was 1.12 µM [rising, full curve, poor fit]; in [1] (setting [13]) it was 14.1 µM [rising, partial curve, poor fit]; in [5] (measured here: CBG/CBR ratio read-out) it was 16.4 µM [falling, partial curve]; in experiment [5] (setting [17]) it was 10.3 µM [falling, partial curve]. Besides, in experiment [4], the viability change was -1.86%.
Turning to `C#CCN(C)CCCOc1ccc(Cl)cc1Cl`, the results for the max response in experiment [1] (setting [11]) and in experiment [1] (setting [14]) were 4.31% and 3.96%, respectively. Also, the AC50 in experiment [1] (setting [12]) was 11.2 µM [falling, partial curve, poor fit]; in [1] (setting [13]) it was 11.2 µM [falling, partial curve, poor fit]; in experiment [5] (setting [17]), 1.03 µM [rising, partial curve].
Turning to `CC(=O)Oc1ccc(C(c2ccc(OC(C)=O)cc2)c2ccccn2)cc1`, the AC50 is 5.01 µM [rising, partial curve] in [3]; 0.794 µM [rising, full curve] in experiment [1] (setting [12]); 28.2 µM [rising, partial curve] in experiment [1] (setting [13]); 0.0355 µM [falling, full curve, poor fit] in [6]; 17.8 µM [rising, partial curve, poor fit] in experiment [8]. Further, the max response is 33.4% in [1] (setting [11]); 50.3% in experiment [1] (setting [14]); 84% in experiment [7]; 39.6% in [9]; 37.3% in experiment [10].
`CC(C)C[C@H](N)CSSC[C@@H](N)CC(C)C`: the values for the max response in experiment [1] (setting [11]) and in experiment [1] (setting [14]) were 47% and 51%, respectively. Moreover, the concentration at half-maximal activity (AC50) in experiment [1] (setting [12]) is 39.8 µM [rising, single point]; in [1] (setting [13]) it was 8.91 µM [falling, single point]; in experiment [2] (setting [16]), 53.6 µM [falling, partial curve]; in [2] (setting [15]), 53.6 µM [falling, partial curve, poor fit].
